Results from the supplement of paper PMC4604168 (melanoma cell lines).
This is one part of the list. Single values are uncertain, as repeats are few or missing.

How the values were obtained:
Assay in all cases: cell count relative to DMSO control; melanoma cells; higher = more viable cells
Conditions in all cases: library dose: low library concentration; 72 h
MZ2-MEL = tested on: MZ2-MEL
MeWo = tested on: MeWo
RPMI7951 = tested on: RPMI7951
RVH-421 = tested on: RVH-421
SkMel28 = tested on: SkMel28
SkMel2 = tested on: SkMel2
SkMel30 = tested on: SkMel30
UACC62 = tested on: UACC62
WM115 = tested on: WM115
WM1716 = tested on: WM1716
WM1745 = tested on: WM1745
WM3526 = tested on: WM3526
WM3619 = tested on: WM3619
WM451Lu = tested on: WM451Lu
SkMel5 = tested on: SkMel5
UACC257 = tested on: UACC257
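Further: cell number obtained by counting DAPI-stained nuclei in high-throughput microscope images with image analysis software, screen run in 1,536-well plates.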

Row | Structure (SMILES) | cell count (MZ2-MEL) [%] | cell count (MeWo) [%] | cell count (RPMI7951) [%] | cell count (RVH-421) [%] | cell count (SkMel28) [%] | cell count (SkMel2) [%] | cell count (SkMel30) [%] | cell count (UACC62) [%] | cell count (WM115) [%] | cell count (WM1716) [%] | cell count (WM1745) [%] | cell count (WM3526) [%] | cell count (WM3619) [%] | cell count (WM451Lu) [%] | cell count (SkMel5) [%] | cell count (UACC257) [%]
1 | Nc1ccn([C@@H]2O[C@H](CO)[C@@H](O)C2(F)F)c(=O)n1 [gemcitabine] + Cn1nnc2c(C(N)=O)ncn2c1=O [temozolomide] (first compound 0.0004 µM, partner dose 2 µM) | 104 | 102 | 87.9 | 62 | 76.7 | 103 | 91.2 | 76.3 | 93.3 | 76.6 | 84 | 107 | 81.3 | 96.7 | – | –
2 | CC(=O)c1c(C)c2cnc(Nc3ccc(N4CCNCC4)cn3)nc2n(C2CCCC2)c1=O [palbociclib] + CC(C)CCN1c2nc(Nc3cc(F)c(O)c(F)c3)ncc2N(C)C(=O)C1C [BID1870] (first compound 0.04 µM, partner dose 0.2 µM) | 79.6 | 71.6 | 81.7 | 65.5 | 57.2 | 71.7 | 65.7 | 74.4 | 67.4 | 63.3 | 80.5 | 48.9 | 67.6 | 77.2 | 78.3 | 60.2
3 | CC(=O)O[C@@]12CO[C@@H]1C[C@H](O)[C@@]1(C)C(=O)[C@H](O)C3=C(C)[C@@H](OC(=O)[C@H](O)[C@@H](NC(=O)OC(C)(C)C)c4ccccc4)C[C@@](O)([C@@H](OC(=O)c4ccccc4)[C@H]21)C3(C)C [Docetaxel] + COc1cc(Nc2ncc(F)c(Nc3ccc4c(n3)NC(=O)C(C)(C)O4)n2)cc(OC)c1OC [Tamatinib] (first compound 0.0001 µM, partner dose 0.4 µM) | 37.3 | 35.6 | 22.4 | 69.9 | 37 | 36.2 | 29.1 | 47.2 | 56.9 | 29.2 | 28.9 | 39.3 | 58.2 | 45.2 | 73.6 | 34.5
4 | Nc1nc(F)nc2c1ncn2[C@@H]1O[C@H](CO)[C@@H](O)[C@@H]1O [fludarabine] + Cn1cc(/C=C2\C(=O)Nc3cccnc32)c2ccccc21 [GW441756] (first compound 0.2 µM, partner dose 0.4 µM) | 98.3 | 33.5 | 110 | 165 | 79.1 | 8.43 | 27.7 | 83 | 101 | 113 | 100 | 28.4 | 137 | 59.9 | 59.5 | 76
5 | Nc1ncn([C@H]2C[C@H](O)[C@@H](CO)O2)c(=O)n1 [decitabine] + COc1cc2ncnc(Nc3ccc(Oc4ccccc4)cc3)c2cc1OC [SrcI1] (first compound 0.1 µM, partner dose 2 µM) | 91.4 | 95.6 | 111 | 71.2 | 110 | 100 | 139 | 82 | 96 | 94.2 | 88.8 | 103 | 106 | 127 | 118 | 110
6 | CC(=O)c1c(C)c2cnc(Nc3ccc(N4CCNCC4)cn3)nc2n(C2CCCC2)c1=O [palbociclib] + Cc1cc(N2CCOCC2)cc2[nH]c(-c3c(NC[C@@H](O)c4cccc(Cl)c4)cc[nH]c3=O)nc12 [BMS536924] (first compound 0.04 µM, partner dose 0.2 µM) | 73.7 | 62.1 | 76.7 | 65.8 | 77.4 | 72.5 | 51.3 | 61.7 | 79.6 | 54 | 56.9 | 57.7 | 62 | 74.3 | 64.7 | 63.2
7 | CC(=O)c1c(C)c2cnc(Nc3ccc(N4CCNCC4)cn3)nc2n(C2CCCC2)c1=O [palbociclib] + C#Cc1cccc(Nc2ncnc3cc(OCCOC)c(OCCOC)cc23)c1 [erlotinib] (first compound 0.04 µM, partner dose 0.8 µM) | 70.7 | 72.8 | 62.4 | 66.2 | 62.5 | 69.4 | 63.8 | 52.6 | 69.8 | 67 | 65.9 | 55.2 | 63.4 | 69.9 | – | –
8 | Nc1ccn([C@@H]2O[C@H](CO)[C@@H](O)C2(F)F)c(=O)n1 [gemcitabine] + COc1cc(N2CCC(N3CCN(C)CC3)CC2)ccc1Nc1ncc(Cl)c(Nc2ccccc2S(=O)(=O)C(C)C)n1 [NVP-TAE684] (first compound 0.0004 µM, partner dose 0.08 µM) | 99.6 | 89.4 | 78.8 | 73.2 | 102 | 91.2 | 112 | 89.8 | 91.3 | 102 | 59.2 | 91.2 | 68.1 | 89.2 | 96.7 | 86
9 | Nc1ncn([C@H]2C[C@H](O)[C@@H](CO)O2)c(=O)n1 [decitabine] + CC1(C)NC(=O)N(c2ccc([N+](=O)[O-])c(C(F)(F)F)c2)C1=O [nilutamide] (first compound 0.1 µM, partner dose 1 µM) | 87.1 | 103 | 86.6 | 92.2 | 96.4 | 98.5 | 91.4 | 85.2 | 76.8 | 78.3 | 116 | 116 | 123 | 131 | 88 | 89.8
10 | Nc1nc(F)nc2c1ncn2[C@@H]1O[C@H](CO)[C@@H](O)[C@@H]1O [fludarabine] + OCCn1cc(-c2cnc3nnn(Cc4ccc5ncccc5c4)c3n2)cn1 [PF04217903] (first compound 0.2 µM, partner dose 1 µM) | 98 | 28.3 | 86.8 | 96.1 | 75.1 | 5.34 | 18 | 73.4 | 75.6 | 72.2 | 92.7 | 34.7 | 85.7 | 62.7 | 46.9 | 75.1
11 | CC(=O)O[C@@]12CO[C@@H]1C[C@H](O)[C@@]1(C)C(=O)[C@H](O)C3=C(C)[C@@H](OC(=O)[C@H](O)[C@@H](NC(=O)OC(C)(C)C)c4ccccc4)C[C@@](O)([C@@H](OC(=O)c4ccccc4)[C@H]21)C3(C)C [Docetaxel] + Cn1nnc2c(C(N)=O)ncn2c1=O [temozolomide] (first compound 0.0001 µM, partner dose 2 µM) | 40.5 | 34.9 | 34.5 | 59.9 | 29.7 | 35.4 | 30.6 | 43.5 | 61.4 | 32.3 | 48.5 | 35.1 | 56 | 54.1 | – | –
12 | Nc1nc(F)nc2c1ncn2[C@@H]1O[C@H](CO)[C@@H](O)[C@@H]1O [fludarabine] + Cc1nc(Nc2ncc(C(=O)Nc3c(C)cccc3Cl)s2)cc(N2CCN(CCO)CC2)n1 [dasatanib] (first compound 0.2 µM, partner dose 0.004 µM) | 79.5 | 24.3 | 76.9 | 79.9 | 60.8 | 7.04 | 16.7 | 76.7 | 72.5 | 86.9 | 69.7 | 22.9 | 97.6 | 43.5 | – | –
13 | Nc1ccn([C@@H]2O[C@H](CO)[C@@H](O)C2(F)F)c(=O)n1 [gemcitabine] + N#Cc1c(O)c2c(-c3ccc(-c4ccccc4O)cc3)csc2[nH]c1=O [A769662] (first compound 0.0004 µM, partner dose 2 µM) | 93.6 | 103 | 91.2 | 91.6 | 92.8 | 99.9 | 109 | 107 | 105 | 96.1 | 84 | 89.4 | 65 | 118 | 116 | 103
14 | Nc1nc(F)nc2c1ncn2[C@@H]1O[C@H](CO)[C@@H](O)[C@@H]1O [fludarabine] + CN(C)S(=O)(=O)c1ccc2c(c1)/C(=C/c1cc3c([nH]1)CCCC3)C(=O)N2 [SU6656] (first compound 0.2 µM, partner dose 0.4 µM) | 99.2 | 36.2 | 121 | 100 | 67.6 | 6.43 | 14.7 | 90.5 | 77.5 | 102 | 98.3 | 27 | 95.4 | 65.4 | 59.9 | 94.4
15 | Nc1ccn([C@@H]2O[C@H](CO)[C@@H](O)C2(F)F)c(=O)n1 [gemcitabine] + COCC[n+]1c2c(n(Cc3cnccn3)c1C)C(=O)c1ccccc1C2=O [YM155] (first compound 0.0004 µM, partner dose 0.0004 µM) | 44.9 | 93.3 | 88.1 | 95.8 | 81.3 | 100 | 114 | 88.2 | 92 | 84.5 | 86 | 79.6 | 48.5 | 42.8 | – | –
16 | Nc1ncn([C@H]2C[C@H](O)[C@@H](CO)O2)c(=O)n1 [decitabine] + O=S(=O)(c1ccccc1)N(CC(F)(F)F)c1ccc(C(O)(C(F)(F)F)C(F)(F)F)cc1 [T0901317] (first compound 0.1 µM, partner dose 1.4 µM) | 84.4 | 102 | 98.1 | 88.5 | 82.7 | 104 | 99.4 | 80.2 | 86.1 | 80.8 | 83.8 | 86.5 | 102 | 98.7 | 77.8 | 113
17 | CC(=O)O[C@@]12CO[C@@H]1C[C@H](O)[C@@]1(C)C(=O)[C@H](O)C3=C(C)[C@@H](OC(=O)[C@H](O)[C@@H](NC(=O)OC(C)(C)C)c4ccccc4)C[C@@](O)([C@@H](OC(=O)c4ccccc4)[C@H]21)C3(C)C [Docetaxel] + O=C(O)C(=O)Nc1sc2c(c1C(=O)O)CCNC2 [TCS401] (first compound 0.0001 µM, partner dose 1.66667 µM) | 43.8 | 51.4 | 37.1 | 77.5 | 56.3 | 41.1 | 33.4 | 42.5 | 68.5 | 49.6 | 46.1 | 49.5 | 63 | 59.9 | 87.8 | 45.1
18 | Nc1ncn([C@H]2C[C@H](O)[C@@H](CO)O2)c(=O)n1 [decitabine] + COCC[n+]1c2c(n(Cc3cnccn3)c1C)C(=O)c1ccccc1C2=O [YM155] (first compound 0.1 µM, partner dose 0.0004 µM) | 54 | 93.5 | 59.8 | 80.1 | 76 | 83.2 | 101 | 70.7 | 72.3 | 62.8 | 88.5 | 105 | 78.7 | 83.6 | – | –
